# Assay results from article PMC12136788.
# The other results are listed elsewhere or left out.
# T1: UNK ZnF1-3 (human, UniProt Q9C0B0 31-174)
# T1 sequence: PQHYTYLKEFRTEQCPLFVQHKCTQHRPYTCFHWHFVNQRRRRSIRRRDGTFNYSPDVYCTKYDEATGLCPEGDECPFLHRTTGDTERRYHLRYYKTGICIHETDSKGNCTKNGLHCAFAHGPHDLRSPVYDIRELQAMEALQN
# B1: chr1:109605286:109605287:-_ENSG00000197780_ENST00000461096|hu_mus|hu_hu_hu_mus_True|68_98 (ssRNA)
# RNA: GGGAGUUCUACAGUCCGACGAUCAAGUUUCAGAGUAUUCAGUGAUCACCUCUUUAAAUGCAAUUAUCCUUACUUUAAGCUAAGCAGAAUAAUAAUUUAAUACCGUAAGUGAACUACACACAAAGCCUGAACCGCGAAAAUGGUCAACAGAGGAUUGAGCAUCA
# B2: 2649564_2649684_3676_3pUTR_ENSG00000140992_ENST00000342085|human|control|control (ssRNA)
# RNA: GGGAGUUCUACAGUCCGACGAUCAGGGCUAAGAGAGACUCCCCAACACAGCCAAGCCUUUCCAAAAGCCAGGAGGAGGAGAGAGGACUCCGACUCCGGCCACAGGCCCAGGGCAACGUGCUGGGCCCCGGAGCGUCCUGCUCCCAACAGAGGAUUGAGCAUCA
# B3: chr1:163117276:163117277:-_ENSG00000143248_ENST00000313961|hu_mus|FALSE|FALSE (ssRNA)
# RNA: GGGAGUUCUACAGUCCGACGAUCGUCAAAGCUGCGAGGAGACGGUUCCACCAGGUUCUUCAUGGUGAUGUCUUUAGUGAAGUGGUCAAUGUUCACCUCUUUAGGGGCCUCUGUCUGGAUGAAUUCUUCAUAAAUUUGCUUUGCCAACAGAGGAUUGAGCAUCA
# B4: 118502085_118502638_2127_CDS_ENSG00000019144_ENST00000356063|human|control|control (ssRNA)
# RNA: GGGAGUUCUACAGUCCGACGAUCAUCUUCGUGCUCCUGCUGGGUGCUCUCAGUGCUGCUGCACUCCUCCUUGAGAUUUUCCUCAUCUGAGCGCUCCAUACUCUCCCAUAGGCGUUGGGUGGCAACGCCAGGCUCCUCGCUGCUCAACAGAGGAUUGAGCAUCA
# B5: 112022719_112022839_2602_3pUTR_ENSG00000126016_ENST00000371959|human|control|control (ssRNA)
# RNA: GGGAGUUCUACAGUCCGACGAUCCAACUGGAGCAGGAACAGAGAUGGGAGCAACAGCUGCAGUUUUGUUCGAUUCCGUCCCACGUUCAGUUUGGGUACUGCAGUCUCGGCUGCCUGUCUUGGAGUGAGCCGAGAGCAGGGGAGCAACAGAGGAUUGAGCAUCA
# B6: 125866897_125867017_1995_CDS_ENSMUSG00000008348_ENSMUST00000136312|mouse|control|control (ssRNA)
# RNA: GGGAGUUCUACAGUCCGACGAUCUGCAAAGAUCAGCCUCUGCUGGUCAGGGGGGAUGCCCUCCUUGUCCUGGAUCUUUGCCUUGACAUUCUCUAUGGUGUCACUGGGCUCGACCUCCAGGGUGAUGGUCUUGCCUGUCAGGGUCAACAGAGGAUUGAGCAUCA
# B7: chr18:34758715:34758716:-_ENSMUSG00000003778_ENSMUST00000003876|mus_mus|motif|central (ssRNA)
# RNA: GGGAGUUCUACAGUCCGACGAUCACUGGUAUGUGUUUCCAUGGGAUUUCUUUCUCCCAGCACUGGCAAUUGACAAGGAAACGGGCCAAAAGCUGUACCAUUAUUCUACCAAAAACAUUCCCAGCCCCAAACAUCACAACCCUCCAACAGAGGAUUGAGCAUCA
# B8: chr13:48664549:48664550:-_ENSG00000136146_ENST00000378586|hu_mus|FALSE|FALSE (ssRNA)
# RNA: GGGAGUUCUACAGUCCGACGAUCCUGGUUUUCCUCUUCCAGCUGUAAUAGCUUCUGAUUUCUUGAAAUUGCAAGCAUUUCUAUGAGUUCCCUCGACAAGACCUCCAGAUCUUCCAGCGCAGACAGAAGCCGCUCUCGCGUACUCAACAGAGGAUUGAGCAUCA
# B9: chr8:97153689:97153690:+_ENSMUSG00000050079_ENSMUST00000060389|mus_hu|motif|central (ssRNA)
# RNA: GGGAGUUCUACAGUCCGACGAUCAUCUAGUAACAAUGUUAUAACAGCUGGUCCCAGUGGAUCUUCCAGUGGAAUAACUCGGAUUAAAGACUGGACAACAUCCAACCAUCCUUCAUCUGUUUCUGCCAUUUCGUGUAAUGUUAUCAACAGAGGAUUGAGCAUCA
# B10: chr5:60455605:60455606:-_ENSG00000188725_ENST00000339020|hu_hu|motif|central (ssRNA)
# RNA: GGGAGUUCUACAGUCCGACGAUCAUUUACAAUAACUGUCAAUAGAAACCUAUAAACUUCUACACCCACGCCUAAAAGUUACGGUAGUAUUGAGGUCAGAACUAACAUGAUUCUUCCAUUUGGUCAAAUUUCAUUUACUAAAUCCAACAGAGGAUUGAGCAUCA
# B11: chr17:60770872:60770873:+_ENSG00000011028_ENST00000303375|hu_hu|hu_hu_hu_mus_True|38_48 (ssRNA)
# RNA: GGGAGUUCUACAGUCCGACGAUCUCUUUAAAAAAAAAAAAAAAAAGACAAACAAUAAUAGCACAUUUCGAGAAUCAAGAACUACAAAGAAAGGGCCAUGUCUUCGAUUUGUUCACAUCGUCCUGCACUGGGACACGGGGACUGCAACAGAGGAUUGAGCAUCA
# B12: 102155536_102155860_195_CDS_ENSMUSG00000059995_ENSMUST00000137387|mouse|control|control (ssRNA)
# RNA: GGGAGUUCUACAGUCCGACGAUCGCAAUUGGGGCAAACACACUCCUUGCUCUUCCACUGGUUGAAAACCUGUCCAAAGAUGUCCAACCCAGGCUGGUCCACGAUCUCAAAAUCCUUCAUGCUGUCAGGAUCCGUAUCAUCCAGCAACAGAGGAUUGAGCAUCA
# B13: chr3:10015032:10015033:+_ENSMUSG00000027533_ENSMUST00000029046|mus_mus|mus_mus_mus_hu_True|18_58 (ssRNA)
# RNA: GGGAGUUCUACAGUCCGACGAUCGUUUUUACCAUCACAAGUGAUGAUACAAUCUGGCUUGGCCAUUGCGCCCAUUUUCCUAAGAGCUAUUCCCACUCCUAGCUCCUUCAUGUAUUCCUCAAAGCCGUUGCUGUCCACCAGGCGCAACAGAGGAUUGAGCAUCA
# B14: chr16:94690093:94690094:+_ENSMUSG00000040785_ENSMUST00000117648|mus_hu|mus_mus_mus_hu_True|18_48 (ssRNA)
# RNA: GGGAGUUCUACAGUCCGACGAUCGGGCUGGGAUGACGGACACACAGCCUCGAUUCCAGGGGGAAAAAGUCUUAGUCGAUACUAAUUUAAAAAGUAUAAUGAUUUUUGAAAAUCAGAUGUAGAUUAAAAAAGAUGAAAAGCAAACAACAGAGGAUUGAGCAUCA
# B15: chr19:30213842:30213843:-_ENSMUSG00000024827_ENSMUST00000025778|mus_hu|FALSE|FALSE (ssRNA)
# RNA: GGGAGUUCUACAGUCCGACGAUCAAUAUGCUCCAGCCCAUGGGAACCAUGGUAGAUUGCAAACAUGGCAGCCAUAUUCGCCAAGAGGGCCUGAGCUGUACAGAUGUUGCUGGUAGCCUUGUCUCUCCGAAUGUGUUGCUCCCUCAACAGAGGAUUGAGCAUCA
# B16: chr5:100395146:100395147:-_ENSMUSG00000000568_ENSMUST00000112939|mus_hu|FALSE|FALSE (ssRNA)
# RNA: GGGAGUUCUACAGUCCGACGAUCAGAAAGGCCACCAACAAAAAUUUUUUUAACCGGCUCUUUUGUUUUCAUGGCUUUGGCCCUUUUAGGAUCAAUCACCUUCCCAUUCAAUUUAUGUUCUUUUUGAUCCAUGACCUUAUCUACCAACAGAGGAUUGAGCAUCA
# B17: 135203627_135203747_3480_CDS_ENSG00000107290_ENST00000224140|human|control|control (ssRNA)
# RNA: GGGAGUUCUACAGUCCGACGAUCAUUUGUAGUAUUGGCUAUAGGAGCCAAACAUUUUUUCUCACCAUCUUGAACUGAAUUAUUAUCGUCUGGAUGAUCUUGCCAAACUGAAAACACUUCAGAUGAACUUUCAAACUCAAAACACAACAGAGGAUUGAGCAUCA
# B18: chr10:70028019:70028020:-_ENSMUSG00000037747_ENSMUST00000162251|mus_hu|motif|central (ssRNA)
# RNA: GGGAGUUCUACAGUCCGACGAUCAGCCUUCUCCAACAAUUGUGUUAGAUGAACUUUUGAAUAGUCUGCGGUGCAGAAUUCGGUAAUUUCACUCCAUUCAGACACAACAUAAUCACCAUCAACUUGUUUUGAGGCAGUCUGCACCAACAGAGGAUUGAGCAUCA
# B19: chr4:140556289:140556290:+_ENSMUSG00000036622_ENSMUST00000037055|mus_mus|mus_mus_mus_hu_False|88_88 (ssRNA)
# RNA: GGGAGUUCUACAGUCCGACGAUCGAUGGAGCUCACCAGGCCCCCUUUGGCUGUGCAGAACCCUGUGCGGGUCACCACUGCCAGGACGUGCGGUCCCACAUAGGCCCGGGCCUGCAAGAUGAGGGUCCCGCAGAAGAGUGUGUGCAACAGAGGAUUGAGCAUCA
# B20: chr7:54825262:54825263:-_ENSG00000132432_ENST00000352861|hu_hu|hu_hu_hu_mus_False|1_88 (ssRNA)
# RNA: GGGAGUUCUACAGUCCGACGAUCCUGCCGGCUGGGCUCCACAAACUUUACCUGAUCAUCCAUGUUUGUUGGAUGGCGGAUUGAGAGCGUAGAGACACGUAGCUCAGGAGAGAACCGAGCCCAACGGAACCGGAAGCGGAAUCCCAACAGAGGAUUGAGCAUCA
# B21: chr14:61442442:61442443:-_ENSG00000126814_ENST00000261249|hu_hu|FALSE|FALSE (ssRNA)
# RNA: GGGAGUUCUACAGUCCGACGAUCUAUGGGAAGGAACUCACUGCUGCAUGGCUGCCCAUCUAAAAGCCACUUGAAAGCACUAAGAAACUCUAUAGCUUUUGCUGGCAAGUUCAUGACAACGUGCACAGAGGGUUUUCUUUCUUUCAACAGAGGAUUGAGCAUCA
# B22: chr11:46405157:46405158:+_ENSG00000110492_ENST00000395566|hu_hu|hu_hu_hu_mus_False|78_98 (ssRNA)
# RNA: GGGAGUUCUACAGUCCGACGAUCCCCUCCCCACUUUGGCUGGGGAGUGUGGGCGUGAAGGCAGGGCCGUGAUUGACAGAGCUGACAGGAAGACAAAAGGCACUGGUGGGUUAUAUCUUGGGCCUGUGGGAGAGGAGGGCUCCGCAACAGAGGAUUGAGCAUCA
# Target: T1, UNK ZnF1-3
# Experiment: nsRBNS (natural sequence RNA bind-n-seq); RBNS binding buffer (assumed for nsRBNS): 25 mM Tris pH 7.5, 150 mM KCl, 3 mM MgCl2, 0.01% Triton X-100, 500 ug/ml BSA, 20 U/ml SUPERase-In, 4 C; UNK is unkempt and MSI1 is Musashi-1; names of the RNAs are library labels; protein concentration not given here; high values mean tight binding
row,Binder,binding signal [enrichment R]
1,B1,0.976
2,B2,1.31
3,B3,1.15
4,B4,0.593
5,B5,1.31
6,B6,0.337
7,B7,1.39
8,B8,0.815
9,B9,0.734
10,B10,0.784
11,B11,2.95
12,B12,0.831
13,B13,0.529
14,B14,0.978
15,B15,1.3
16,B16,1.27
17,B17,0.778
18,B18,1.32
19,B19,1.17
20,B20,0.926
21,B21,1.07
22,B22,1.75
